Reference: PubChem BioAssay AID1745845 (National Center for Advancing Translational Sciences (NCATS), 2022)
Out of some 360,000 compounds screened, about 2,600 (0.72%) were called active. Inconclusive means that the source gave no clear call. Such entries were picked first, then a sample of the others. The call rests on the fitted dose curve; in most records, active means well fitted inhibition curve with a large enough effect; inconclusive means small, poorly fitted or top-dose-only effect; inactive means no such curve, though single readings can be large or run the other way. Potencies of inconclusive entries are doubtful fits and often do not repeat.

Assay: Primary qHTS for Inhibitors of ATXN expression; further: nearly all actives have a fitted effect of over 55% in size
Details: HEK-293 ATXN2-luciferase reporter, luminescence, 24 h; activity change, negative = inhibition: at 57 µM (top of the series)
Procedure, shortened: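 qHTS (up to 57 uM final) was run with 24 h compound exposure of reporter cells at 37 °C. Each well was multiplexed: SteadyGlo luminescence measured ATXN2-luciferase expression after a fluorogenic Gly-Phe-AFC viability readout (25 uM final).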
On the % scale 0 is the no-effect control and ±100 the full control effect; potency means the concentration at half of the fitted maximal effect; tags describe the fitted curve by direction and shape.

Compound	Potency	activity change, negative = inhibition
O=[N+]([O-])c1cc(Cl)c2cccnc2c1O	inconclusive: 31.6 µM [inhibitor, single point]	
CCN(CC)S(=O)(=O)c1ccc(C(=O)Nc2ccc(Cc3ccncc3)cc2)cc1	inconclusive: 39.8 µM [inhibitor, single point]	
C[C@H](CO)N1C[C@H](C)[C@@H](CN(C)Cc2ccc(-c3ccccc3)cc2)OCc2cnnn2CCCC1=O		inactive: 4.43%
CCN=C1NN=C(c2cc(C)n(Cc3ccco3)c2C)CS1	inconclusive: 0.708 µM [inhibitor, full curve]	
Cn1cnc([N+](=O)[O-])c1S(=O)(=O)Oc1ccccc1	inconclusive: 28.2 µM [inhibitor, single point]	
Cc1ccc(/C=C2\SC(=S)N(CCCC(=O)NC3CCCC3)C2=O)cc1	active: 12.6 µM	
Cc1nnc(N2CCC(C(=O)Nc3ccc(F)cc3)CC2)c2nn(-c3ccc(Cl)cc3)c(C)c12	active: 25.1 µM	
COc1ccc2c(c1)c(=Cc1ccc(N(C)C)cc1)c1cc(-c3ccccc3)[n+](C)n12	active: 8.91 µM	
C=CS(=O)(=O)N(Cc1ccccc1Br)[C@H](CO)CC(C)C	inconclusive: 35.5 µM [inhibitor, single point]	
CCCCCCCCNc1ncnc2ccccc12	inconclusive: 0.794 µM [inhibitor, full curve, poor fit]	
COc1cccc(/C=C2/SC(=S)N(CCC(=O)N3CCOCC3)C2=O)c1		inactive: 56.8%
NC(=O)[C@H]1CC2(CC(c3cccc(NC(=O)COc4ccc(Cl)cc4)c3)=NO2)CN1C(=O)C(c1ccccc1)c1ccccc1 (stereo not given in full)	inconclusive: 25.1 µM [inhibitor, single point]	
Cc1cc(Sc2ncnc(N)c2[N+](=O)[O-])ncn1	inconclusive: 37.7 µM [inhibitor, single point]	
COc1ccc(CN(C)C(=O)Cc2ccc(OC)c(S(=O)(=O)N3CCOCC3)c2)cc1OC		inactive: 7.78%
COc1ccc2[nH]c3c(N4CCc5ccccc5C4)ncnc3c2c1	inconclusive: 29.9 µM [inhibitor, partial curve, poor fit]	
CCOC(=O)c1nc(S(C)(=O)=O)ncc1Cl	inconclusive: 39.8 µM [inhibitor, single point]	
Cc1c(C(=O)NCc2ccc(Cl)c(Cl)c2)sc(=O)n1Cc1ccccc1F	inconclusive: 15.8 µM [inhibitor, partial curve, poor fit]	
O=C(Nc1cccc(S(=O)(=O)Nc2ccc(Cl)cc2)c1)c1cc2c(s1)CCCC2	inconclusive: 35.5 µM [inhibitor, single point]	
O=C(O)c1ccc(NC2=C(Cl)C(=O)c3ccccc3C2=O)cc1	active: 4.47 µM	
COc1ccccc1N1CCN(C(=O)c2cc(-c3ccc(C)cc3)on2)CC1	inconclusive: 39.8 µM [inhibitor, single point]	
O=c1cc(CNC2CCCCC2)c2ccccc2[nH]1	inconclusive: 35.5 µM [inhibitor, partial curve, poor fit]	
CC(=O)Nc1ccc(NC(=O)CCc2nc3ccccc3c(=O)[nH]2)cc1		inactive: 12.8%

Compound	Potency	activity change, negative = inhibition
Cc1nc2ccc(S(=O)(=O)N(CC(=O)Nc3cccc(Cl)c3)Cc3ccccc3)cc2s1	inconclusive: 39.8 µM [inhibitor, single point]	
Cc1cccc(C)c1Nc1nnc(SCC(=O)c2ccc(Br)s2)s1		inactive: -7.95%
Cc1cccc(OCCCC(=O)Nc2ccc(Cl)c(S(=O)(=O)N3CCOCC3)c2)c1	inconclusive: 8.91 µM [inhibitor, full curve, poor fit]	
CCc1ccc(-c2[nH]nc3nc(-c4ccc(OC)cc4)cc(C(=O)NCCCOC)c23)cc1		inactive: 15%
CCOC(=O)C(Cc1ccc(NC(C)=O)cc1)N1C(=O)c2ccccc2C1=O (stereo not given)		inactive: 1.73%
Cn1ccc2c(N3CCCCCC3)cc3c(c21)C1CCC3O1 (stereo not given)	inconclusive: 31.6 µM [inhibitor, partial curve, poor fit]	
O=C(N/N=C/c1cc(Cl)ccc1O)c1ccncc1	inconclusive: 4.47 µM [inhibitor, full curve, poor fit]	
CCS(=O)(=O)c1ncc(Cl)c(C(=O)Nc2ccc(S(=O)(=O)N3CCCC(C)C3)cc2)n1 (stereo not given)	active: 8.91 µM	
CCOC(=O)c1c(Nc2ccc(F)cc2)nnc(-c2ccccc2)c1-c1ccccc1	inconclusive: 31.6 µM [inhibitor, single point]	
Cc1cccc(Oc2cc(NC(=O)c3ccccc3)cc([N+](=O)[O-])c2)c1	inconclusive: 20 µM [inhibitor, single point]	
CCCCOc1ccc(CNC(=O)Cc2ccc(NC(=O)N3CCCCc4ccccc43)cc2)cc1	inconclusive: 39.8 µM [inhibitor, single point]	
COC(=O)c1ccc(C(=O)N2CCCC(Nc3ccc(C(C)C)cc3)C2)cc1 (stereo not given)	inconclusive: 39.8 µM [inhibitor, partial curve, poor fit]	
O=C(NCCCN1CCOCC1)C(=O)N/N=C/c1c2ccccc2cc2ccccc12	inconclusive: 22.4 µM [inhibitor, partial curve]	
O=C(NCC(c1ccco1)N1CCCCC1)c1ccc(COc2ccc(Cl)cc2)cc1 (stereo not given)	inconclusive: 28.2 µM [inhibitor, single point]	
CCCCN(CCCNc1ncnc2nc[nH]c12)c1ccccc1	inconclusive: 28.2 µM [inhibitor, partial curve]	
Cc1cccc(C2c3[nH]c4ccccc4c3CCN2Cc2cnn(-c3ccc(F)cc3)c2)n1 (stereo not given)		inactive: -19.5% [at 11.3 µM]
N#Cc1ccsc1NC(=O)CN1CCN(c2ccc(O)cc2)CC1		inactive: -16.6%
CC1=C(C(=O)N(C)C)CC(CC(=O)NC(c2ccccc2)c2ccccc2)C(=O)N1Cc1ccc(C(C)(C)C)cc1 (stereo not given)	inconclusive: 31.6 µM [inhibitor, single point]	
CN(C)CCCSc1nc2ccccc2s1		inactive: -10.7%
CN(C)c1ncnc2c1ncn2[C@H]1CN(Cc2ccc(-c3ccccc3)cc2)C[C@@H](CO)O1		inactive: -2.38%
CC1(C)N=C(SCC(=O)Nc2ccccc2)C(c2ccc(Cl)cc2)=N1	inconclusive: 25.1 µM [inhibitor, partial curve, poor fit]	
CCOC(=O)N1CCN(c2cc(N3CCN(CC)CC3)c(F)cc2[N+](=O)[O-])CC1C (stereo not given)	inconclusive: 28.2 µM [inhibitor, partial curve, poor fit]	

Compound	Potency	activity change, negative = inhibition
COc1ccc(C(=O)Oc2c(CN3CCOCC3)cc(Cl)c3cccnc23)cc1	inconclusive: 26.7 µM [inhibitor, single point]	
O=C(O)CCCN1C(=O)/C(=C\C(Cl)=C\c2ccccc2)SC1=S	inconclusive: 35.5 µM [inhibitor, single point]	
CCOC(=O)Cn1nnnc1CN(CCc1ccccc1)Cc1cc2cc(CC)ccc2[nH]c1=O	inconclusive: 28.2 µM [inhibitor, single point]	
CCOc1ccccc1C(=O)NCC(=O)NCCc1ccc(S(N)(=O)=O)cc1	inconclusive: 13.4 µM [inhibitor, partial curve, poor fit]	
O=C(Nn1cc(C(=O)N2CCN(c3ccccc3F)CC2)c2ccccc2c1=O)c1cnccn1	inconclusive: 20 µM [inhibitor, partial curve, poor fit]	
Cc1cc2nc3ccc(N(C)C)cc3nc2cc1N	inconclusive: 39.8 µM [inhibitor, single point]	
O=C(C1CCCCC1)N1C[C@@H](n2cc(-c3ccc(F)cc3)nn2)[C@H](O)C[C@@H]1c1ccc(Cl)cc1	inconclusive: 28.2 µM [inhibitor, single point]	
COc1cc(Nc2ncc3c(n2)CCN(C(=O)Nc2ccc(C(C)C)cc2)C3)cc(OC)c1OC	inconclusive: 22.4 µM [inhibitor, single point]	
Cc1nc(N2CCN(C(=O)c3cccs3)CC2)c2c3c(sc2n1)CCCC3	inconclusive: 37.7 µM [inhibitor, single point]	
CC(C)Oc1ccc(F)cc1-c1cc(C(=O)Nc2ccc(C(C)(C)C)cc2)[nH]n1		inactive: -19.8%
CCc1nc2c(OCc3ccccc3C)cccn2c1N(C)C(=O)c1ccco1	inconclusive: 11.2 µM [inhibitor, partial curve, poor fit]	
CC(C)CC[n+]1ccccc1/C=C/c1ccc(N(C)C)cc1	inconclusive: 3.55 µM [inhibitor, full curve]	
COC(=O)CSc1nnc2n(C3CCCCC3)c(=O)c3c4c(sc3n12)CCCC4		inactive: -12.7%
CN1CCN(C2=Cc3cc(Cl)ccc3Sc3cc(F)ccc32)CC1	inconclusive: 35.5 µM [inhibitor, single point]	
OC(c1ccc(Cl)c(Cl)c1)c1ncc(-c2ccc(C(F)(F)F)cc2)[nH]1 (stereo not given)	inconclusive: 39.8 µM [inhibitor, single point]	
Nc1nc(Cl)nc2c1ncn2C1CC(O)C(CO)O1 (stereo not given)	active: 1.78 µM	
CCc1cccc2c(C(=O)CCl)c[nH]c12		inactive: 6.13%
CC(C)C[C@H]1CNC(=S)N1C[C@H]1CCCN1C[C@H](CC(C)C)N1C[C@H](Cc2ccc(O)cc2)N(CC2CCCCCC2)C1=S	inconclusive: 28.2 µM [inhibitor, single point]	
O=C(Cn1ccc(NC(=O)OCc2ccccc2)nc1=O)NCCCc1ccccc1	inconclusive: 25.1 µM [inhibitor, partial curve]	
CCc1ccc(NC(=O)C(=O)NCC(c2cccnc2)N2CCN(Cc3ccccc3)CC2)cc1 (stereo not given)		inactive: 3.15%
CCC(c1nnnn1C1CCCCC1)N(Cc1ccco1)Cc1cc2ccc(OC)cc2[nH]c1=O (stereo not given)	inconclusive: 39.8 µM [inhibitor, single point]	
